The record followed here is a collection of fitness landscapes (doi:10.1126/science.1257360).

The list shows a part of the results. Where only a bound is given, the exact number is not on record here.

B1: PhoQ; a variant is named by its letters at X, in order, P23837 (parent)
chain: MKKLLRLFFPLSLRVRFLLATAAVVLVLSLAYGMVALIGYSVSFDKTTFRLLRGESNLFYTLAKWENNKLHVELPENIDKQSPTMTLIYDENGQLLWAQRDVPWLMKMIQPDWLKSNGFHEIEADVNDTSLLLSGDHSIQQQLQEVREDDDDAEMTHSVAVNVYPATSRMPKLTIVVVDTIPVELKSSYMVWSWFIYVLSANLLLVIPLLWVAAWWSLRPIEALAKEVRELEEHNRELLNPATTRELTSLVRNLNRLLKSERERYDKYRTTLTDLTHSLKTPLXXLQXXLRSLRSEKMSVSDAEPVMLEQISRISQQIGYYLHRASMRGGTLLSRELHPVAPLLDNLTSALNKVYQRKGVNISLDISPEISFVGEQNDFVEVMGNVLDNACKYCLEFVEISARQTDEHLYIVVEDDGPGIPLSKREVIFDRGQRVDTLRPGQGVGLAVAREITEQYEGKIVAGESMLGGARMEVIFGRQHSAPKDE

Variants of B1 are the subject of the assay. Description: enrichment ratio after two sorts for PhoP signalling (ratio (wild type AVST 3.29)); higher = more functional. The conditions noted are these: with PhoP (E. coli).
For PSTE, the enrichment ratio is not above 0.25. The value for GTAC was not above 0.25. In the case of GNKR it was not above 0.25. For the variant FHEW, the enrichment ratio is not above 0.25. The value for GNSG was 13.2. The value for HAGF was not above 0.25; that for GQFS was not above 0.25; that for WLYD was not above 0.25.

Regarding ELSR, the enrichment ratio is not above 0.25.

Consider RGRE, for which the enrichment ratio is not above 0.25. The value for IILI was not above 0.25; that for RSAT was not above 0.25. The value for GDSP was not above 0.25; that for LITF was not above 0.25; that for QCKV was not above 0.25. In the case of LGWP it was not above 0.25; in that of HWQM, not above 0.25; in that of LHVY, not above 0.25. Regarding WWCF, the enrichment ratio was not above 0.25. The value for DRVQ was not above 0.25; that for MKTQ was not above 0.25; that for PWDD was not above 0.25.

With IFIM, the enrichment ratio is not above 0.25.

In the case of LVNR, the enrichment ratio was not above 0.25. In the case of HRIS it was not above 0.25. The value for GNFK was not above 0.25. With LFYK, the enrichment ratio is not above 0.25. The value for WVKT was not above 0.25; that for YWEL was not above 0.25; that for WRQS was not above 0.25.

On to FGAY, for which the enrichment ratio was not above 0.25. The value for TCDE was not above 0.25; that for NVNW was not above 0.25; that for FWKD was not above 0.25. The value for YPSG was not above 0.25.

On to MQAV, for which the enrichment ratio is 18.4. Consider GEYP, for which the enrichment ratio is not above 0.25. Consider NNFY, for which the enrichment ratio was not above 0.25. In the case of HTFG it was not above 0.25. In the case of RNKK it was not above 0.25; in that of PINV, not above 0.25. The value for AGTA was 0.557; that for SFLP was not above 0.25; that for LETQ was not above 0.25. On to RWRL, for which the enrichment ratio is not above 0.25. Turning to VIII, the enrichment ratio is not above 0.25. In the case of PAYV it was not above 0.25; in that of MRDA, not above 0.25. In the case of LHLN it was not above 0.25; in that of GDPM, not above 0.25. In the case of IVQP it was not above 0.25. Take SRNG: the enrichment ratio is not above 0.25. The value for YWLT was not above 0.25.

As for IKVM, the enrichment ratio is not above 0.25.

Take NARH: the enrichment ratio was not above 0.25.

On to TRTM, for which the enrichment ratio was found to be 1.9. In the case of DMCD it was not above 0.25; in that of VLPV, not above 0.25. In the case of FWTH it was not above 0.25; in that of DFVC, not above 0.25; in that of SRSQ, not above 0.25.

Turning to LMVR, the enrichment ratio is not above 0.25. The value for EQSI was not above 0.25. The value for TDRI was not above 0.25; that for LWWI was not above 0.25. The value for RIFV was not above 0.25; that for TIHS was 2.26; that for WWRS was not above 0.25. For WNAW, the enrichment ratio was not above 0.25. In the case of YDSW it was not above 0.25; in that of WLYP, not above 0.25.

For TWQS, the enrichment ratio was not above 0.25. The value for YSFF was not above 0.25; that for VCPP was 0.292. The value for PKVH was not above 0.25; that for VEIQ was not above 0.25; that for WFRH was not above 0.25. The value for QGAE was not above 0.25; that for EAIK was not above 0.25. Regarding AQVH, the enrichment ratio was 7.73.

As to MIIW, the enrichment ratio was not above 0.25.

Regarding GQIH, the enrichment ratio was not above 0.25. The value for MFEA was not above 0.25. The value for HQQN was not above 0.25; that for GFWI was not above 0.25. In the case of ASMH it was 16.5; in that of EYAQ, not above 0.25; in that of MIIG, not above 0.25. With QSMY, the enrichment ratio is not above 0.25. The value for QTLG was not above 0.25. The value for RCSM was not above 0.25; that for YSSP was not above 0.25. The value for TQGD was 2.92. With MIPK, the enrichment ratio is not above 0.25. In the case of IELC it was not above 0.25; in that of HKKM, not above 0.25. The value for PNEV was not above 0.25. In the case of WGLV it was 5.51; in that of ECTK, not above 0.25.

On to ELWS, for which the enrichment ratio is not above 0.25. In the case of TLLS it was 0.896; in that of GHLI, not above 0.25; in that of VLHK, not above 0.25. Take IRRL: the enrichment ratio was determined as 0.349. The value for FNRM was not above 0.25; that for VINF was not above 0.25. In the case of LKCE it was not above 0.25. In the case of DILF it was not above 0.25; in that of SGHC, not above 0.25; in that of AQTQ, not above 0.25. On to KHCT, for which the enrichment ratio was not above 0.25. The value for FCHV was not above 0.25. In the case of MQGG it was 2.73; in that of CRVY, not above 0.25. In the case of MFCT it was not above 0.25; in that of GRCQ, not above 0.25; in that of WIWT, not above 0.25.

Regarding METT, the enrichment ratio came out at 13. In the case of MVWL it was not above 0.25.

Turning to WRRN, the enrichment ratio is not above 0.25. The value for RMLG was not above 0.25. The value for EGSN was not above 0.25. The value for RGQI was not above 0.25. Consider QLKP, for which the enrichment ratio is not above 0.25. With PAVS, the enrichment ratio was not above 0.25.

For VMCA, the enrichment ratio was not above 0.25. In the case of TDAI it was 13.6; in that of QLQF, not above 0.25. In the case of YVTL it was 0.327; in that of HTGH, not above 0.25; in that of MDCP, not above 0.25. In the case of HPEC it was not above 0.25; in that of QEYH, 3.82; in that of ESNI, not above 0.25.

With LTAI, the enrichment ratio is not above 0.25. The value for IPHG was not above 0.25; that for LMIW was not above 0.25.

For VIKS, the enrichment ratio is not above 0.25. Turning to PFVI, the enrichment ratio was not above 0.25. The value for ELWH was not above 0.25; that for YDSE was not above 0.25. The value for VTNF was not above 0.25; that for PLGI was not above 0.25. The value for WQLC was not above 0.25; that for NLKR was not above 0.25; that for PRIE was not above 0.25. As for VYAG, the enrichment ratio is not above 0.25. In the case of DLWR it was not above 0.25; in that of IAAF, not above 0.25. The value for TNYW was not above 0.25; that for GMSE was 2.63; that for WIKM was not above 0.25. The value for FSGP was not above 0.25.
